In the assay the target is Genome polyprotein (dengue virus type 2) (UniProt P29990).
The mark [1] stands for this setting: Thailand/16681/1984, Concentration 25.0 uM, Number of replicates 1.0.

About 110 (5.5%) of roughly 2,000 compounds showed an effect of 50% or more. This is one part of the list.

As for `COc1cc(CNC(=O)C2CCN(c3ccc(C=O)cc3)CC2)cc(OC)c1`, under setting [1], the inhibition (commonly the change of the read-out against control, counted positive when it falls) came out at 11.4%. For the compound `CC(C)(CO)NC(=O)c1cc(Cl)cc(NS(=O)(=O)c2ccccc2)c1`, the inhibition (Thailand/16681/1984, Concentration 49.5 uM, Number of replicates 2.0, Standard deviation 0.43077113751226487 %) was -5.72%; the inhibition (Thailand/16681/1984, Concentration 99.01 uM, Number of replicates 2.0, Standard deviation 0.028975789763845603 %) was -4.57%; the inhibition (Thailand/16681/1984, Concentration 198.0 uM, Number of replicates 2.0, Standard deviation 1.4999717780869397 %) was -2.99%. For `Cc1cc(CO)c2cccc(Cc3ccccc3NC(=O)Cc3c(C)c4c(=O)[nH]n(C)c4[nH]c3=O)c2n1`, the inhibition runs as follows: (Thailand/16681/1984, Concentration 49.95 uM, Number of replicates 2.0, Standard deviation 2.5458058686723866 %) 22.5%; (Thailand/16681/1984, Concentration 99.9 uM, Number of replicates 2.0, Standard deviation 1.6741240734205003 %) 45.5%. With `O=C(Nc1ccn(C2CCC2)n1)c1ccn([C@H]2CCCNC2)n1`, the inhibition is -3.58% (Thailand/16681/1984, Concentration 49.5 uM, Number of replicates 2.0, Standard deviation 1.9181978218462399 %); 6.41% (Thailand/16681/1984, Concentration 99.01 uM, Number of replicates 2.0, Standard deviation 11.711213803316953 %); -3.38% (Thailand/16681/1984, Concentration 198.0 uM, Number of replicates 2.0, Standard deviation 0.15914093659313241 %). Take `O=Cc1ccc(N2CCC(C(=O)N3CCN(CCc4ccncc4)CC3)CC2)cc1`: the inhibition under setting [1] turned out to be 9.91%. With `CNC(=O)c1nccnc1NS(=O)(=O)c1ccc(Oc2ccccc2Cl)cc1`, the inhibition is, setting by setting: (Thailand/16681/1984, Concentration 49.5 uM, Number of replicates 2.0, Standard deviation 1.5095148361141704 %) 0.146%; (Thailand/16681/1984, Concentration 99.01 uM, Number of replicates 2.0, Standard deviation 1.499470483470751 %) 2.7%; (Thailand/16681/1984, Concentration 198.0 uM, Number of replicates 2.0, Standard deviation 0.45486328764545614 %) 7.74%. `Cc1cc(CO)c2cccc(Cc3ccccc3C(=O)Nc3cc(C)on3)c2n1`: the inhibition (Thailand/16681/1984, Concentration 49.95 uM, Number of replicates 2.0, Standard deviation 1.5788782649320652 %) amounted to 8.61% and the inhibition (Thailand/16681/1984, Concentration 99.9 uM, Number of replicates 2.0, Standard deviation 0.4297535440018178 %) is 25.7%. For the compound `CNS(=O)(=O)c1ccc(CNCc2ccc(N3CCN(C)CC3)cc2)cc1`, the inhibition (Thailand/16681/1984, Concentration 49.5 uM, Number of replicates 2.0, Standard deviation 0.2679515396874046 %) was -1.41%; the inhibition (Thailand/16681/1984, Concentration 99.01 uM, Number of replicates 2.0, Standard deviation 0.0046358372348345115 %) was -0.423%; the inhibition (Thailand/16681/1984, Concentration 198.0 uM, Number of replicates 2.0, Standard deviation 1.744466130987394 %) was found to be 0.949%. For the compound `N#Cc1cnn(-c2ccc([N+](=O)[O-])cc2)c1NC(=O)C1CCN(c2ccc(C=O)cc2)CC1`, under setting [1], the inhibition turned out to be 18.2%. For the compound `O=Cc1ccc(N2CCC(C(=O)N3CCC(c4nc5ccccc5s4)CC3)CC2)cc1`, the inhibition under setting [1] was determined as 14.3%. As for `CCc1cccc2[nH]c(C(=O)N3C[C@H](n4cc(CO)nn4)CCC3(C)C)cc12`, the inhibition is -0.621% (Thailand/16681/1984, Concentration 49.5 uM, Number of replicates 2.0, Standard deviation 2.369908946691566 %); 1.41% (Thailand/16681/1984, Concentration 99.01 uM, Number of replicates 2.0, Standard deviation 3.0056614926708067 %); 3.23% (Thailand/16681/1984, Concentration 198.0 uM, Number of replicates 2.0, Standard deviation 1.5510891618348923 %).

Regarding `COc1ccccc1OCCCN(C)C(=O)C1CCN(c2ccc(C=O)cc2)CC1`, the inhibition under setting [1] was found to be 12%. Consider `O=Cc1ccc(N2CCC(C(=O)N3CCN(c4ccnc5cc(Cl)ccc45)CC3)CC2)cc1`, for which the inhibition under setting [1] was 1.86%. As to `COc1ccc(F)c(-c2nn(C)cc2NC(=O)c2ccccc2C(F)(F)F)c1`, the inhibition is, setting by setting: (Thailand/16681/1984, Concentration 49.5 uM, Number of replicates 2.0, Standard deviation 3.583319549695768 %) -2.64%; (Thailand/16681/1984, Concentration 99.01 uM, Number of replicates 2.0, Standard deviation 4.648656873158677 %) -2.47%; (Thailand/16681/1984, Concentration 198.0 uM, Number of replicates 2.0, Standard deviation 3.7890463989356435 %) -2.09%. `O=Cc1ccc(N2CCC(C(=O)Nc3nc4cc(Cl)ccc4s3)CC2)cc1`: the inhibition under setting [1] was 11.6%. On to `O=Cc1ccc(N2CCC(C(=O)NC34C[C@@H]5C[C@@H](CC(O)(C5)C3)C4)CC2)cc1`, for which the inhibition under setting [1] was determined as 15.4%. Regarding `Cc1nc2ccc(-c3ccccc3C(=O)Nc3cnn(C)c3)cn2n1`, the inhibition is -3.16% (Thailand/16681/1984, Concentration 49.5 uM, Number of replicates 2.0, Standard deviation 3.543719624703675 %); -3.74% (Thailand/16681/1984, Concentration 99.01 uM, Number of replicates 2.0, Standard deviation 3.2974266339695943 %); -0.758% (Thailand/16681/1984, Concentration 198.0 uM, Number of replicates 2.0, Standard deviation 0.22311235049363462 %). As for `O=Cc1ccc(N2CCC(C(=O)N3CCC[C@H](C(=O)c4ccc(F)cc4)C3)CC2)cc1`, the inhibition under setting [1] stood at 12.9%. On to `CNc1ccccc1C(=O)Nc1ccccc1Cc1cccc2c(CO)cc(C)nc12`, for which the inhibition by setting is: (Thailand/16681/1984, Concentration 49.95 uM, Number of replicates 2.0, Standard deviation 0.9187611737377075 %) -6.32%; (Thailand/16681/1984, Concentration 99.9 uM, Number of replicates 2.0, Standard deviation 0.9402243720481833 %) -7.75%. Turning to `O=Cc1ccc(N2CCC(C(=O)Nc3ccc(F)c(F)c3Br)CC2)cc1`, the inhibition under setting [1] came to 12.7%. On to `NC[C@H]1C[C@@H](NC(=O)[C@@H](NC(=O)OCc2ccccc2)c2ccc(OCc3ccccc3)cc2)C1`, for which the inhibition is, setting by setting: (Thailand/16681/1984, Concentration 49.5 uM, Number of replicates 2.0, Standard deviation 0.5017181762110399 %) 0.286%; (Thailand/16681/1984, Concentration 99.01 uM, Number of replicates 2.0, Standard deviation 0.21656888367492427 %) 3.78%; (Thailand/16681/1984, Concentration 198.0 uM, Number of replicates 2.0, Standard deviation 0.021656062289261615 %) 26.3%. On to `NC(=O)c1cn(C[C@H]2CCCN2c2ccc3c(Cl)cc(Cl)cc3n2)nn1`, for which the inhibition by setting is: (Thailand/16681/1984, Concentration 49.5 uM, Number of replicates 2.0, Standard deviation 0.09143556479565608 %) 2.52%; (Thailand/16681/1984, Concentration 99.01 uM, Number of replicates 2.0, Standard deviation 2.0692726945713575 %) 12%; (Thailand/16681/1984, Concentration 198.0 uM, Number of replicates 2.0, Standard deviation 0.7581530210542139 %) 8.44%. Turning to `O=Cc1ccc(N2CCC(C(=O)N3CCNC(=O)[C@@H]3c3ccccc3)CC2)cc1`, the inhibition under setting [1] was 13.4%.

Consider `CN(Cc1nccn1Cc1ccccc1)C(=O)C1CCN(c2ccc(C=O)cc2)CC1`, for which, under setting [1], the inhibition turned out to be 12.9%.

(Values after ChEMBL document CHEMBL5606460, “ASAP - DENV-2 NS2B-NS3 protease fluorescence single point” (2024).)
